Measurements: the RNAGym collection of RNA variant scans (doi:10.1073/pnas.2313332121)
This sample is rich in variants without activity.

B1: TPR 5TU (parent)
chain: GGAUCUUCUCGAUCUAACAAAAAAGACAAAUCUGCCACAAAGCUUGAGAGCAUCUUCGGAUGCAGAGGCGGCAGCCUUCGGUGGCGCGAUAGCGCCAACGUUCUCAACUAUGACACGCAAAACGCGUGCUCCGUUGAAUGGAGUUUAUCAUG

Variants of: B1
Experiment: polymerase ribozyme fitness, log enrichment relative to wild type (log ratio); higher = more active; in vitro selection for triplet polymerase activity
In short: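 Streptavidin-bead capture of gel-excised extended constructs, followed by RT-PCR, closed a single triplicate in vitro selection round. That round began by annealing PCR-built, transcribed mutant libraries of each subunit of a heterodimeric triplet polymerase ribozyme with a biotinylated primer, the partner subunit and triplets, then incubating them frozen at −7 °C. After Illumina sequencing of inputs and outputs, genotypes needed ≥10 input reads and ≥1 read per output. Fitness is the base-2 logarithm of genotype enrichment over wild-type enrichment, using inverse-variance-weighted replicate averages.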

| Variant | polymerase ribozyme fitness (log ratio) |
| --- | --- |
| C87U U90C C116A A138U | ≤ -4.2 |
| G92C A98U G143A | -1.77 |
| C87A G152U | ≤ -4.2 |
| G92C A138G G140A | ≤ -4.2 |
| C93U A107G A115U U148G | ≤ -4.2 |
| A91U A120G A142G U145G | ≤ -4.2 |
| U90G C96U G100U C132U G141A | ≤ -4.2 |
| A89U A150C | -3.66 |
| C87A G143U | ≤ -4.2 |
| C87U U135G | ≤ -4.2 |
| C93A G141A | -1.74 |
| A91C G100C A120U A138G | ≤ -4.2 |
| G92A C125A U134G | -3.58 |
| C93G C96A C105U C116U | -4.17 |
| G92A A97C C125U U145G A147C | ≤ -4.2 |
| G88C U101C A113C | ≤ -4.2 |
| C93G C95U C103G G143C U144G | ≤ -4.2 |
| U90G G128A U144G | ≤ -4.2 |
| C93G G141U | -2.01 |
| A91C C99A U127G G133C | ≤ -4.2 |
| C87U A120U C123G | -1.06 |

| Variant | polymerase ribozyme fitness (log ratio) |
| --- | --- |
| G88U C95G | -3.65 |
| C93G C132G | ≤ -4.2 |
| A89C A150C | -3.81 |
| G92U A97G C108G U135C A138G | ≤ -4.2 |
| A91U G141A U148C | ≤ -4.2 |
| A91C A119U | ≤ -4.2 |
| C87G C132G | ≤ -4.2 |
| C93G C96U A122C G124A U148G | ≤ -4.2 |
| C93A C95G A119G U144G | ≤ -4.2 |
| A91U G126U | ≤ -4.2 |
| C93A G143A | -2.78 |
| C93U A115U U139C G141U G143C | ≤ -4.2 |
| C93A C116A G126A G141C | ≤ -4.2 |
| A91C G100C C108U G143C | ≤ -4.2 |
| A89G U139G | -0.875 |
| A91C A98G A122U U144C A147U A150C | ≤ -4.2 |
| A89C C93A U134A G141C | ≤ -4.2 |
| G88A C96G | -3.74 |
| C93U A138G G140C A147U | ≤ -4.2 |
| A91C C103G C108U | ≤ -4.2 |
| C87A U146G | ≤ -4.2 |

| Variant | polymerase ribozyme fitness (log ratio) |
| --- | --- |
| C87G A107G | ≤ -4.2 |
| A91C C114U U139C | ≤ -4.2 |
| U90A A107G | ≤ -4.2 |
| A89U C96U C118U A122G U139G | -0.0743 |
| G92A C105A U127G C149U | ≤ -4.2 |
| A91C C105G | ≤ -4.2 |
| A91C C105A | ≤ -4.2 |
| A89G A110U U151A | -3.58 |
| C87A C131A | ≤ -4.2 |
| C93U A138C | ≤ -4.2 |
| C93U C95U U135G U146A | ≤ -4.2 |
| C87A G117C G136U G141U | ≤ -4.2 |
| C93A U101G U104C C125G | ≤ -4.2 |
| C87G G143A | ≤ -4.2 |
| A91U U104A G141A U148A | ≤ -4.2 |
| C87G U135C | ≤ -4.2 |
| U90C A91U C114U C118U U144G | -4.15 |
| G88C A106G G126U G136C | ≤ -4.2 |
| C93A C95A C123G | ≤ -4.2 |
| G88C U130G G133C G143U A150G | ≤ -4.2 |
| A89U C99G A142U | -2.38 |

| Variant | polymerase ribozyme fitness (log ratio) |
| --- | --- |
| C87G A97U G117C | ≤ -4.2 |
| C87G G88C U90C A91U U111A | ≤ -4.2 |
| C93G G143A U146G | ≤ -4.2 |
| G88A G133C | ≤ -4.2 |
| A89C U90A A107C U144G | ≤ -4.2 |
| G88U G94U C118U | ≤ -4.2 |
| C93A A107G | ≤ -4.2 |
| A89G C99U A115G A137C | ≤ -4.2 |
| A91U U111C | ≤ -4.2 |
| A91U U139A | ≤ -4.2 |
| G88U A89C C123A | ≤ -4.2 |
| C87U U102C C116G U127G | ≤ -4.2 |
| A91U A138G | ≤ -4.2 |
| C87G C93U C99A U134G G141U | ≤ -4.2 |
| C87U G141C | -1.72 |
| G92A C96A U102C A150G | ≤ -4.2 |
| G88U A115C A120G | -3.89 |
| A91C A120G | ≤ -4.2 |
| C87U C96A | -1.2 |
| A91G A142C | -3.5 |
